Measured values as given in the supplement of paper PMC8728848.
The other results are listed elsewhere or left out.

Experiments:
Test in all cases: glycan array binding signal (z-score within array); higher = stronger binding
Conditions in all cases: glycan notation: IUPAC condensed, linker removed
[1] = molecular target: Fuc(a1-2)Gal(b1-4)GlcNAc(b1-3)Gal(b1-4)GlcNAc(b1-3)Gal(b1-4)GlcNAc
Procedure, shortened: (§1)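 Glycan array data were curated from 3228 arrays in the Consortium for Functional Glycomics database and kept only where the protein sequence was available. Glycan names were converted to IUPAC-condensed notation, and columns mapping to the same glycan were averaged. The binding signal is a within-array Z-score, averaged across arrays of the same protein sequence at different concentrations or buffers and across linkers. Negative Z-scores can be read as non-binding.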

[2] = molecular target: Fuc(a1-2)Gal(b1-4)GlcNAc(b1-3)GalNAc
Procedure, shortened: as §1

[3] = molecular target: Fuc(a1-2)Gal(b1-4)GlcNAc(b1-3)[Fuc(a1-2)Gal(b1-4)GlcNAc(b1-6)]GalNAc
Procedure, shortened: as §1

[4] = molecular target: Fuc(a1-2)Gal(b1-4)GlcNAc(b1-3)[Fuc(a1-3)[Gal(b1-4)]GlcNAc(b1-6)]Gal(b1-4)Glc
Procedure, shortened: as §1

[5] = molecular target: Fuc(a1-2)Gal(b1-4)GlcNAc(b1-6)GalNAc
Procedure, shortened: as §1

[6] = molecular target: Fuc(a1-2)Gal(b1-4)GlcNAc6S
Procedure, shortened: as §1

[7] = molecular target: Fuc(a1-2)Gal(b1-4)[Fuc(a1-3)]GlcNAc
Procedure, shortened: as §1

[8] = molecular target: Fuc(a1-2)Gal(b1-4)[Fuc(a1-3)]GlcNAc(b1-2)Man(a1-3)[Fuc(a1-2)Gal(b1-4)[Fuc(a1-3)]GlcNAc(b1-2)Man(a1-6)]Man(b1-4)GlcNAc(b1-4)[Fuc(a1-6)]GlcNAc
Procedure, shortened: as §1

[9] = molecular target: Fuc(a1-2)Gal(b1-4)[Fuc(a1-3)]GlcNAc(b1-2)[Fuc(a1-2)Gal(b1-4)[Fuc(a1-3)]GlcNAc(b1-4)]Man(a1-3)[Fuc(a1-2)Gal(b1-4)[Fuc(a1-3)]GlcNAc(b1-2)Man(a1-6)]Man(b1-4)GlcNAc(b1-4)GlcNAc
Procedure, shortened: as §1

[10] = molecular target: Fuc(a1-2)Gal(b1-4)[Fuc(a1-3)]GlcNAc(b1-3)Gal(b1-4)[Fuc(a1-3)]GlcNAc
Procedure, shortened: as §1

[11] = molecular target: Fuc(a1-2)Gal(b1-4)[Fuc(a1-3)]GlcNAc(b1-3)Gal(b1-4)[Fuc(a1-3)]GlcNAc(b1-3)Gal(b1-4)[Fuc(a1-3)]GlcNAc
Procedure, shortened: as §1

[12] = molecular target: Fuc(a1-2)Gal(b1-4)[Fuc(a1-3)]GlcNAc(b1-3)GalNAc
Procedure, shortened: as §1

[13] = molecular target: Fuc(a1-2)Gal(b1-4)[Fuc(a1-3)]GlcNAc(b1-3)[Neu5Ac(a2-6)Gal(b1-4)GlcNAc(b1-6)]Gal(b1-4)Glc
Procedure, shortened: as §1

[14] = molecular target: Fuc(a1-2)Gal3S(b1-4)GlcNAc
Procedure, shortened: as §1

[15] = molecular target: Fuc(a1-2)Gal6S(b1-3)GlcNAc
Procedure, shortened: as §1

[16] = molecular target: Fuc(a1-2)Gal6S(b1-3)GlcNAc6S
Procedure, shortened: as §1

[17] = molecular target: Fuc(a1-2)Gal6S(b1-4)Glc
Procedure, shortened: as §1

[18] = molecular target: Fuc(a1-2)Gal6S(b1-4)Glc6S
Procedure, shortened: as §1

[19] = molecular target: Fuc(a1-2)[Gal(a1-3)]Gal
Procedure, shortened: as §1

[20] = molecular target: Fuc(a1-2)[Gal(a1-3)]Gal(b1-3)GalNAc
Procedure, shortened: as §1

[21] = molecular target: Fuc(a1-2)[Gal(a1-3)]Gal(b1-3)GalNAc(b1-3)Gal(a1-4)Gal(b1-4)Glc
Procedure, shortened: as §1

[22] = molecular target: Fuc(a1-2)[Gal(a1-3)]Gal(b1-3)GlcNAc
Procedure, shortened: as §1

[23] = molecular target: Fuc(a1-2)[Gal(a1-3)]Gal(b1-3)GlcNAc(b1-2)Man(a1-3)[Fuc(a1-2)[Gal(a1-3)]Gal(b1-3)GlcNAc(b1-2)Man(a1-6)]Man(b1-4)GlcNAc(b1-4)GlcNAc
Procedure, shortened: as §1

[24] = molecular target: Fuc(a1-2)[Gal(a1-3)]Gal(b1-3)GlcNAc(b1-2)Man(a1-3)[Fuc(a1-2)[Gal(a1-3)]Gal(b1-3)GlcNAc(b1-2)Man(a1-6)]Man(b1-4)GlcNAc(b1-4)[Fuc(a1-6)]GlcNAc
Procedure, shortened: as §1

[25] = molecular target: Fuc(a1-2)[Gal(a1-3)]Gal(b1-3)GlcNAc(b1-3)GalNAc
Procedure, shortened: as §1

[26] = molecular target: Fuc(a1-2)[Gal(a1-3)]Gal(b1-3)GlcNAc(b1-6)GalNAc
Procedure, shortened: as §1

[27] = molecular target: Fuc(a1-2)[Gal(a1-3)]Gal(b1-4)Glc
Procedure, shortened: as §1

[28] = molecular target: Fuc(a1-2)[Gal(a1-3)]Gal(b1-4)GlcNAc
Procedure, shortened: as §1

[29] = molecular target: Fuc(a1-2)[Gal(a1-3)]Gal(b1-4)GlcNAc(b1-2)Man
Procedure, shortened: as §1

[30] = molecular target: Fuc(a1-2)[Gal(a1-3)]Gal(b1-4)GlcNAc(b1-2)Man(a1-3)[Fuc(a1-2)[Gal(a1-3)]Gal(b1-4)GlcNAc(b1-2)Man(a1-6)]Man(b1-4)GlcNAc(b1-4)GlcNAc
Procedure, shortened: as §1

B1: AidA (Burkholderia cenocepacia) (protein)
chain: MSRVTDVLVSFDTETILKKYPNPSKNPAAPTLIDWRYVYMVTNQDNVISGQAGGELDLKAQVGDLIRWRETSLSLGFENQVVFYKFIGNVGNDLISTPTPRVAEASIPVPNTSKPEVPTCQKVANYYWSSECLKVGRVTYHFQFQIIDRNCQSQGCFSWDPFISIHN
glycan array binding signal (z-score) [1]: -0.157
glycan array binding signal (z-score) [2]: 0.035
glycan array binding signal (z-score) [3]: 0.357
glycan array binding signal (z-score) [4]: 0.059
glycan array binding signal (z-score) [5]: 0.111
glycan array binding signal (z-score) [6]: -0.628
glycan array binding signal (z-score) [7]: -0.335
glycan array binding signal (z-score) [8]: 1.33
glycan array binding signal (z-score) [9]: 0.273
glycan array binding signal (z-score) [10]: 0.21
glycan array binding signal (z-score) [11]: -0.075
glycan array binding signal (z-score) [12]: 1.28
glycan array binding signal (z-score) [13]: 0.33
glycan array binding signal (z-score) [14]: 0.094
glycan array binding signal (z-score) [15]: 0.304
glycan array binding signal (z-score) [16]: -0.604
glycan array binding signal (z-score) [17]: -0.382
glycan array binding signal (z-score) [18]: -0.235
glycan array binding signal (z-score) [19]: 0.288
glycan array binding signal (z-score) [20]: -0.752
glycan array binding signal (z-score) [21]: -0.206
glycan array binding signal (z-score) [22]: 0.339
glycan array binding signal (z-score) [23]: 0.554
glycan array binding signal (z-score) [24]: 1.35
glycan array binding signal (z-score) [25]: -0.322
glycan array binding signal (z-score) [26]: 0.594
glycan array binding signal (z-score) [27]: 0.234
glycan array binding signal (z-score) [28]: 0.756
glycan array binding signal (z-score) [29]: -0.764
glycan array binding signal (z-score) [30]: 0.558
